Experimental findings from patent US20220249679A1 (Mitsubishi Tanabe Pharma Corporation, priority 2018, published 2022) are described below.

Broadly, the EC50 is the concentration at which the effect is half-maximal.

In one test the target is mouse FGFR3c (Mus musculus, UniProt Q61851). Put plainly: mFGFR3c ELISA of bi-specific binding agents. To be noted: NB = No binding. From the text:
Similarly, for expression of hF6 comprising G7 fused to the C-terminus of the heavy chain, a nucleic acid construct was generated comprising a coding region directing the expression of the hF6 heavy chain located 5′ of, and in-frame with, a sequence encoding the linker and a coding region directing the expression of G7. For expression of hF6 comprising G7 fused to the N-terminus of the light chain, a nucleic acid construct was generated comprising a coding region directing the expression of G7 located 5′ of, and in-frame with, a sequence encoding the linker and a coding region directing the expression of the hF6 light chain. For expression of hF6 comprising G7 fused to the C-terminus of the light chain, a nucleic acid construct was generated comprising a coding region directing the expression of the hF6 light chain located 5′ of, and in-frame with, a sequence encoding the linker and a coding region directing the expression of G7. The indicated constructs were then co-transfected into CHO cells with a nucleic acid construct directing the expression of the corresponding heavy or light chain of hF6.

In test [1] the target is T1, human FGFR3c on transfected CHO cells (Homo sapiens, UniProt P22607).
T1 construct: expressed in transfected cells; host or cells: CHO
T1 sequence (P22607 23-806): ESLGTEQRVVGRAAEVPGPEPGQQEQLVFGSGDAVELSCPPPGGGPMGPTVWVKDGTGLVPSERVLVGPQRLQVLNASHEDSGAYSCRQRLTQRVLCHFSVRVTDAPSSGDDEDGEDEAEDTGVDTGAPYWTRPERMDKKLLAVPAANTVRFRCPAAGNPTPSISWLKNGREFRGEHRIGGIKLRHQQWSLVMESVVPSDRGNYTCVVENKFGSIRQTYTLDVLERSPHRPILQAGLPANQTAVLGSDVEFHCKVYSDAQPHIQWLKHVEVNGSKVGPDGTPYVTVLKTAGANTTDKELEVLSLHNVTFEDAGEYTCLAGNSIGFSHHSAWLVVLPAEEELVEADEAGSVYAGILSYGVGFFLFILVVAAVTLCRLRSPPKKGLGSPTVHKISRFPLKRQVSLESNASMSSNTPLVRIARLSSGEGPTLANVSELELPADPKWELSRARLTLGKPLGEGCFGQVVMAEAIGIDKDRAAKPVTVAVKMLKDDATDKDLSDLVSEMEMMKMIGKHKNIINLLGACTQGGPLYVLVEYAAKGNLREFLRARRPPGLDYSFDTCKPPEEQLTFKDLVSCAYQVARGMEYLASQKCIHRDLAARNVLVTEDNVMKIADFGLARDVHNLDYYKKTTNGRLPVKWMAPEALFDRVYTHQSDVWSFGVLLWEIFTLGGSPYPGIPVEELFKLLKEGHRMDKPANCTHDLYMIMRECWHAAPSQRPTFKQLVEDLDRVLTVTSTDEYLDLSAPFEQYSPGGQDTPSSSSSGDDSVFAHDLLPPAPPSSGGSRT
Briefly: FACS binding to CHO cells expressing human FGFR3c. The conditions noted are these: FACs analysis, FIG. 16A. From the text:
(§1) CHO cells (Chinese Hamster Ovary cells) were transfected to express the human FGFR3c (FIG. 16A) or human FGFR3b (FIG. 16B) on the cell surface.
(Flow cytometry measures light scatter and fluorescence of single cells or particles in a stream.)

Test [2] addresses T2, human FGFR3b on transfected CHO cells (Homo sapiens, UniProt P22607).
T2 construct: expressed in transfected cells; host or cells: CHO
Put plainly: FACS binding to CHO cells expressing human FGFR3b. The conditions noted are these: FACs analysis, FIG. 16B.
Text: as §1

The target of a further test is T3, human CD138 (Homo sapiens, UniProt P18827).
T3 sequence (P18827 23-310): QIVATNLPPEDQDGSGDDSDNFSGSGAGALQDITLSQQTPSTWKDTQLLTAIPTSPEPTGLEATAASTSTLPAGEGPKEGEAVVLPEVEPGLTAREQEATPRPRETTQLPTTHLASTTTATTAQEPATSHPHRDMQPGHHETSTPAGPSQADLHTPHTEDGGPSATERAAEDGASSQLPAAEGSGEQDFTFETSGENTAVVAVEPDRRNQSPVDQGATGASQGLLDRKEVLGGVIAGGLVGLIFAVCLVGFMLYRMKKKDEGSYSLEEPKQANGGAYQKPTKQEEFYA
Briefly: FACS binding to Expi293 cells transfected with human CD138. To be noted: 3-fold dilutions from 33.3 μg/mL. The procedure:
(§2) 12P16F6 hIgG1 or 13P30A7 hIgG1 were tested for cross-reactivity to cynomolgus monkey CD138. Antibodies that cross-react with CD138 from cynomolgus monkey (cyno) have an advantage that they can be tested for toxicity in this strain of non-human primate prior to conducting efficacy trials. Briefly, a vector directing the cell-surface expression of human CD138 or cyno CD138 was transfected in Expi293 cells. Binding of 12P16F6 hIgG1 and 13P30A7 hIgG1 to transfected Expi293 cells was tested at 3-fold dilutions starting at 33.3 μg/mL.

Another test relates to cyno CD138. Briefly: FACS binding to Expi293 cells transfected with cyno CD138. The conditions noted are these: 3-fold dilutions from 33.3 μg/mL. The arrangement: species or system cynomolgus monkey. The procedure: as §2
The next test deals with T4, CD138 on H929 cells (Homo sapiens, UniProt P18827).
T4 construct: H929 cells are a human B-lymphocyte cell line that expresses CD138 on its cell surface; endogenous in cells; host or cells: H929
T4 sequence (P18827 23-310): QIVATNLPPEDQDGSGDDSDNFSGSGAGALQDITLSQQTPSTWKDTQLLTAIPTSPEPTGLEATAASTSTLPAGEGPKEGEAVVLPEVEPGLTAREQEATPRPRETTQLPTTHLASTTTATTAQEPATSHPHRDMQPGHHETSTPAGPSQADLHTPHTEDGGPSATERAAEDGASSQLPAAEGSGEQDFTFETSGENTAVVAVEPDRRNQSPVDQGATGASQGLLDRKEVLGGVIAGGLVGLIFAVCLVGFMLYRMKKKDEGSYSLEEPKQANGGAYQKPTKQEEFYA
Briefly: Primary hybridoma FACS screen on CD138 positive cells (H929). In kind it is binding. On the procedure: Hybridoma supernatants from Fusion 12 (plates 12-19) were screened by Fluorescence-activated cell sorting (FACS) using 96-well plates containing 20,000 H929 cells per well. H929 cells are a human B-lymphocyte cell line that expresses CD138 on its cell surface. Hybridoma supernatants were added to H929 cells for 1 hour at 4° C. The cells were washed followed by addition of an AlexaFluro 647 anti-mouse antibody and washed again to remove unbound antibody. The cells were analyzed by FACS to detect binding. FACS Data was analyzed by Flowjo software. If supernatant antibodies bound cells at a level ≥3 standard deviations above the average signal of the plate, they were selected for confirmation FACS and further characterization. A total of 5013 hybridomas from Fusion 12 underwent this primary FACS screen with 134 positive hits; a total hit rate of 2.7% in primary screening.

Test [3] deals with T5, H929 (CD138 expressing) cells (Homo sapiens, UniProt P18827).
T5 construct: H929 cells are a human B-lymphocyte cell line that expresses CD138 on its cell surface; endogenous in cells; host or cells: H929
T5 sequence (P18827 23-310): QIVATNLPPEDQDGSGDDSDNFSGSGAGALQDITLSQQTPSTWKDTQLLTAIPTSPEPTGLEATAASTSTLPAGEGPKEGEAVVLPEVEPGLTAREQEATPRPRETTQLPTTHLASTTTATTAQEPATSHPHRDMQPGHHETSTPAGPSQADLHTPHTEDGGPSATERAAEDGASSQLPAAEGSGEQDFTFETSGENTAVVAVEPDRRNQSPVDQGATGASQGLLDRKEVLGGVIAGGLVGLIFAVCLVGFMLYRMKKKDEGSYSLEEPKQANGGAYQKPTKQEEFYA
Put plainly: Secondary FACS screen of Fusion 12 hybridomas, H929 cells. Format: binding. The procedure: (§3) For secondary screening, hybridoma supernatants were assayed by FACS for positive binding to H929 (CD138 expressing) and negative binding to ARH-77 (negative CD138 expression) cells. Negative cells were CSFE stained to help distinguish better positive and negative cell lines.

Test [4] deals with ARH-77 (negative CD138 expression) cells. Briefly: Secondary FACS screen of Fusion 12 hybridomas, ARH-77 cells. Format: binding. On the procedure:
as §3

In a further test the target is T6, Human CD138 His (Homo sapiens, UniProt P18827).
T6 construct: His
T6 sequence (P18827 23-310): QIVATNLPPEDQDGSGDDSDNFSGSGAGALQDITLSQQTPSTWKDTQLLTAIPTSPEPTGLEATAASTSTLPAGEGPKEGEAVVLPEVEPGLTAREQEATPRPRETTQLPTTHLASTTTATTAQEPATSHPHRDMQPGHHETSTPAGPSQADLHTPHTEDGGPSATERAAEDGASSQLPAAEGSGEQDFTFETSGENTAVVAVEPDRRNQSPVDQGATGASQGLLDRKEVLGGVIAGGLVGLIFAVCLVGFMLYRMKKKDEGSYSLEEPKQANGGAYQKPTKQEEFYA
Briefly: SPR kinetic binding, human CD138. The conditions noted are these: bivalent analyte fit. The procedure:
Murine IgGs were purified from the hybridoma supernatants and the IgGs were subject to SPR (surface plasmon resonance) for kinetic binding measurements. Human or mouse CD138 His was immobilized on a GLM chip at […] on a BioRad Proteon. […] KDs were measured using bivalent analyte fit.
A general note: SPR reads the build-up and loss of mass on a sensor chip optically.

The target in a further test is mouse CD138 peptide (Mus musculus, UniProt P18828). Put plainly: CD138 binding ELISA, mouse CD138 peptide. To be noted: ELISA negative control peptide. The procedure:
A CD138 binding ELISA was performed with 9 representative humanized antibodies to determine binding to portion of the linear CD138 peptide used for immunization (FIG. 7). […] Coated plates were incubated with various dilutions of each of the 9 representative antibodies overnight and binding was detected with a goat anti-human IgG (H+L)-HRP. EC50s were determined using four parameter fit curves (Table 21). An ELISA was also performed to detect binding to plate-coated human CD138-Fc protein (Table 21). The analysis and results were similar.
On the technique in general: In an ELISA, binding on a coated surface is turned into a signal by an enzyme label.

Sequence of mouse FGFR3c (Q61851 21-801): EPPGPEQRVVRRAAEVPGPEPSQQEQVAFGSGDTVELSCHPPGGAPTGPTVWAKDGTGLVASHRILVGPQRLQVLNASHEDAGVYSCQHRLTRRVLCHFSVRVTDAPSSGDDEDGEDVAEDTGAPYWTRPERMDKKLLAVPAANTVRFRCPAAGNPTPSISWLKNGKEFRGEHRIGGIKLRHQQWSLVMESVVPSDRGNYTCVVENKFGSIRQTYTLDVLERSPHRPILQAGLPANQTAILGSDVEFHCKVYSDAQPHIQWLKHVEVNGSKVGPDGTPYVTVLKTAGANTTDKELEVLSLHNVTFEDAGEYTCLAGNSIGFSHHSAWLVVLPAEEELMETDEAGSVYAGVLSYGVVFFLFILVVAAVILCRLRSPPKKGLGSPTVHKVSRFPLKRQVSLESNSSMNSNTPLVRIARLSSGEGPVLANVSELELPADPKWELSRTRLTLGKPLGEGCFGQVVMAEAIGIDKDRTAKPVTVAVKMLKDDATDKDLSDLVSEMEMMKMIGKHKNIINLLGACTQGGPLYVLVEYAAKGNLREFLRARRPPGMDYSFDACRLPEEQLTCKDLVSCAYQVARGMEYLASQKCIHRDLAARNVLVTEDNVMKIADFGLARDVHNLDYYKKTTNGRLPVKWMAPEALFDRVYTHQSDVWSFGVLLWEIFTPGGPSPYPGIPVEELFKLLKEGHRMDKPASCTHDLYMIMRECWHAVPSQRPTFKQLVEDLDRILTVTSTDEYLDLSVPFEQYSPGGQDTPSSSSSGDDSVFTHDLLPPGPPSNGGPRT
Sequence of mouse CD138 peptide (P18828 147-167): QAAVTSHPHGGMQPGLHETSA
T2 sequence (P22607 23-808 isoform P22607-2 limits assumed): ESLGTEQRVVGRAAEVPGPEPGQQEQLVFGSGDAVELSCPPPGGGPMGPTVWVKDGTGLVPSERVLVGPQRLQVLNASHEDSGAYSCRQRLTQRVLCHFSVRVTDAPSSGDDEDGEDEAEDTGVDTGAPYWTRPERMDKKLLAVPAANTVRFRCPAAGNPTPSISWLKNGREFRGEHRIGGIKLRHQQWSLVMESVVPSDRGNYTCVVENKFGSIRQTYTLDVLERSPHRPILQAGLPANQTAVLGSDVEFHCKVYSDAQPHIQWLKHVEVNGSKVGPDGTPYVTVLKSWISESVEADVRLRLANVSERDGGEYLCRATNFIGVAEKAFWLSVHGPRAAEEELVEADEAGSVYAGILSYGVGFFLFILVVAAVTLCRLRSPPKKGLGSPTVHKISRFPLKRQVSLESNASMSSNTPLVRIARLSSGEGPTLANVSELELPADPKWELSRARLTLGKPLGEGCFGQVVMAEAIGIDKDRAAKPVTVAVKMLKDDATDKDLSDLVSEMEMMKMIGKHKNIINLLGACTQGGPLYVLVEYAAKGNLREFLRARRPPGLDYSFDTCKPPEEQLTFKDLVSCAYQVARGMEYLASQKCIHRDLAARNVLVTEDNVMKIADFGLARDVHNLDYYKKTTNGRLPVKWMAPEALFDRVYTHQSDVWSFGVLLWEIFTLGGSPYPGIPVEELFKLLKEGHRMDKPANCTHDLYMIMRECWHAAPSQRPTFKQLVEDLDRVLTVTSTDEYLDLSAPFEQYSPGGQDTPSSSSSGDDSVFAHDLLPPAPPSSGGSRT

B1: hF6-HN-G7: bi-specific: G7 Fynomer attached to the N-terminal end of the heavy chain of the hF6 antibody; SEQ ID NO:125 with light chain SEQ ID NO:44 (antibody)
heavy: MEWSWVFLFFLSVTTGVHSGVTLFVALYDYEVYGPTPMLSFHKGEKFQILKGGSGPYWEARSLTTGETGLIPSNYVAPVDSIQGGGGSGGGGSGGGGSQVQLVQSGAEVVKPGASVKLSCKASGYTFTSYYLYWVKKAPGQGLDWIGEIYPRSGGTNINEKFLSRVTLTADTSTSTAYLELSSLTSEDTAVYYCTRSLLYWGQGTTLTVSS[letters of human IgG1 constant region left out]
light: DVVMTQTPLSLSVTPGQPASISCKSSQSLLASDGKTYLNWLLQRPGQSPKRLIYLVSKLDSGVPNRFSGSGSGTDFTLQISRVEAEDVGLYYCWQGAHFPFTFGSGTKLEIKRTVAAPSVFIFPPSDEQLKSGTASVVCLLNNFYPREAKVQWKVDNALQSGNSQESVTEQDSKDSTYSLSSTLTLSKADYEKHKVYACEVTHQGLSSPVTKSFNRGEC
modifications: bi-specific binding agent hF6-HN-G7; (1)..(19) signaling sequence; (20)..(83) Fynomer portion; (84)..(98) linker; Humanized Light chain variable region
On to B1, for which the half-maximal effective concentration (EC50) with mouse FGFR3c worked out at 0.53 nM. Also, the “binding to human FGFR3c on transfected CHO cells” value in test [1] is listed as “specifically bind”. Further, in test [2], the “binding to human FGFR3b on transfected CHO cells” value is listed as “specifically bind”.

B2: hF6-HC-G7: bi-specific: G7 Fynomer attached to the C-terminal end of the heavy chain of the hF6 antibody (antibody)
heavy: QVQLVQSGAEVVKPGASVKLSCKASGYTFTSYYLYWVKKAPGQGLDWIGEIYPRSGGTNINEKFLSRVTLTADTSTSTAYLELSSLTSEDTAVYYCTRSLLYWGQGTTLTVSS[letters of human IgG1 constant region left out]GGGGSGGGGSGGGGSGVTLFVALYDYEVYGPTPMLSFHKGEKFQILKGGSGPYWEARSLTTGETGLIPSNYVAPVDSIQ
light: DVVMTQTPLSLSVTPGQPASISCKSSQSLLASDGKTYLNWLLQRPGQSPKRLIYLVSKLDSGVPNRFSGSGSGTDFTLQISRVEAEDVGLYYCWQGAHFPFTFGSGTKLEIKRTVAAPSVFIFPPSDEQLKSGTASVVCLLNNFYPREAKVQWKVDNALQSGNSQESVTEQDSKDSTYSLSSTLTLSKADYEKHKVYACEVTHQGLSSPVTKSFNRGEC
B2 yielded an EC50 with mouse FGFR3c of 0.91 nM.

B3: 12P16F6 hIgG1: chimeric antibody: murine variable regions of F12P16F6 (SEQ ID NO:82, 34), constant regions of human IgG1, kappa (antibody, V domains shown)
VH: QVQLQQSGAEVVKPGASVKLSCKASGYTFTSYYLYWVKKGPGQGLDWIGEIYPRSGGTNINEKFLSKATLTADESSSTAYLQLSSLTSEDSAVYYCTRSLLYWGQGTTLIVSS
VL: DVVMTQTPLTLSVTIGQPASISCKSSQSLLASDGKTYLNWLLQRPGQSPKRLIYLVSKLDSGVPDRFTGSGSGTGFTLQISRVEAEDLGIYYCWQGAHFPFTFGSGTKLEIKR
As to B3, the “binding to human CD138 expressing cells” value with human CD138 is recorded as “specific binding”. Moreover, in the test on cyno CD138, the “binding to cynomolgus CD138 expressing cells” value is “specific binding”.

B4: F12P16F6: murine anti-CD138 hybridoma antibody; VH SEQ ID NO:82, VL SEQ ID NO:34 (antibody, listed as Mus musculus, V domains shown)
VH: QVQLQQSGAEVVKPGASVKLSCKASGYTFTSYYLYWVKKGPGQGLDWIGEIYPRSGGTNINEKFLSKATLTADESSSTAYLQLSSLTSEDSAVYYCTRSLLYWGQGTTLIVSS
VL: DVVMTQTPLTLSVTIGQPASISCKSSQSLLASDGKTYLNWLLQRPGQSPKRLIYLVSKLDSGVPDRFTGSGSGTGFTLQISRVEAEDLGIYYCWQGAHFPFTFGSGTKLEIKR
In the case of B4, the “% Q4” value with CD138 on H929 cells (Q4 = unbound cells) worked out at 0.223%. Besides, the “Cells | Geom. Mean (FL4-A)” value with CD138 on H929 cells (all cells) is on record as 6.94E+05. Moreover, the “Q1 Geom. Mean” value in the test with CD138 on H929 cells (average fluorescence intensity of cells in Q1) worked out at 7.07E+05. Further, in the test with CD138 on H929 cells (average fluorescence intensity of cells in Q4), the “Q4 Geom. Mean” value came out at 146. In addition, the “% Q1” value in the test with CD138 on H929 cells (hybridoma supernatant, H929 cells, Q1 = positive binding of antibody) is 99.6%. In [3] (average fluorescence intensity), the “H929 GeoMean” value was determined as 6.46E+05. The “H929 Q1%” value in test [3] (percentage of H929 cells bound by antibody) was 99.32%. Besides, the “% ARH77 (−)” value in test [4] (CD138-negative ARH77 cells) was 21.85%. Moreover, the “ARH77 Geom. Mean” value in test [4] (average fluorescence intensity) is given as 1.12E+04. In the test with Human CD138 His, the “hCD138 ka” value turned out to be 55700 M⁻¹ s⁻¹ and the “hCD138 kd” value was determined as 0.00117 s⁻¹. Besides, the “binding to mouse CD138 peptide” value with mouse CD138 peptide is “does not bind”.
